Measured values published in the RNAGym collection of RNA variant scans (doi:10.7554/elife.90254).
The source gives no read counts; variants with many changes may rest on few reads.

B1: OR4K15 (parent)
chain: GUUAACGGUCAUAGGCCAUGGAAACUAGGAGCACCAUUUCGCUGCCAGUGAAGAAAUGAACAAAGAAAAUCUGGGCCAGGCAGGCAUCAAAAGAAAUAGUCUUGCGCUCAACCAGAAAGUCUGUAAUCAUUUUAAGGGUA

Variants of: B1
Experiment: self-cleavage, relative activity (ratio to wild type); higher = more cleavage; in vitro, sequencing; the parent is a self-cleaving ribozyme

Variant	self-cleavage
GUUAACGGACUUAGGCCAUGGAAACUAGGAGCACCACUUCGCUGCCAGUGAAGAAAUGAACAAAGAAAAUCUGGGCCAGGCAGGCAUCAAAAGAAAUAGUCUUGCGCUCAACCAGAAAGUCUGUAAUCAUUUUAAGGGUA	1.44
GUUAACGGACAUAGGCCAUGGAAACUAGGAGCGCCAUUUCGCUGCCAGUGAAGAAAUGAACAAAGAAAAUCUGGGCCAGGCAGGCAUCAAAAGAAAUAGUCUUGCGCUCAACCAGAAAGUCUGUAAUUAUUUUAAGGGUA	0.75
GUUAACGCUCAUAGGCCACGGAAACUAGGAGCACCAUUUCGCUGCCAGCGAAGAAAUGAACAAAGAAAAUCUGGGCCAGGCAGGCAUCAAAAGAAAUAGUCUUGCGCUCAACCGGAAAGCCUGUAAUCAUUUUAAGGGUA	0.14
GUUAACGGACAUAGGCCAUGGAAACUAGGAGCACCAUUUCGCUGCCAGUGAAGAAAUGAACAAGGAAAAUCUGGGCCAGGCAGGCAUCAAAAGAACUAGUCUUGCGCUCAACCAGAAAGUCUGUAAUCAUUUUAAGGGUA	0.45
GUUAACGGACGUAGGCCACGGAAACUAGGAGCACCAUUUCGCUGCCAGUGAAGAAAUGAACAAGGAAAAUCUGGGCCAGGCAGGCAUCAAAAGAAAUAGUCUUGCGCUCAACCAGAAAGUCUGUAAUCAUUUUAAGGGUA	1.2
GUUAACGUUCAUAGGCCAUGGAAACUAGGAGCACCAUUUCGCUGCCAGUGAAGAAAUGAACAAAGAAAAUCUGGGCCAGGCAGGCAUCAGAAGAAAUAGUCUUGCGCUCAACCAGAAAGUCUGUAAUCAUUUUAAGGGCA	0.65
GUUAACGGACAUAGGCCAUGGAAACUAGGAGCACCAUUUCGCUGCCAGUGAAGAAAUGAACUAAGAAAAUCUGGGCCAGGCAGGCAUCAAAAGAAAUAGUCUUGCGCACAACCAGAAAGUCUGUAAUCAUUUUAAGGGUA	0.02
GUUAACGGACAUAGGCCAUGGAAGCUAGGGGCACCACUUCGCUGCCAGUGAAGAAAUGAACAAAGAAAAUCUGGGCCAGGCAGGCAUCAAAAGGAAUAGUCUUGCGCUCAACCAGAAAGUCUGUAAUCAUUUUAAGGGUA	1.61
GUUAACGGACAUAGGCCAUGGAAACUAGGAGCACCAUUUCGCUGCCAGUGAGGAAAUGAACAAAGAAAAUCUGGGCCAGGCAGGCAUCAAAGGAAAUAGUCUUGCGCUCAACCAGAAAGUCUGUAAUCAUUUUAAGGGUA	1.26
GUUAACGGACAUAGGCCGUGGAAACUAGGAGCACCAUUGCGCUGCCAGUGAAGAAAUGAGCAAAGAAAAUCUGGGCCAGGCAGGCAUCAAAAGAAAUAGUCUUGCGCUCAACCAGAAAGUCUGUAAUCAUUUUGAGGGUA	0.7
GUUAACGUUCAUAGGCCAUGGAAACUAGGAGCACCGUUUCGCUGCCAGUGAAGAAAUGAACGAAGAAAAUCUGGGCCAGGCAGGCAUCUAAAGAAAUAGUCUUGCGCUCAACCAGAAAGUCUGUAAUCAUUUUAAGGGUA	0.91
GUUAACGGACAUAGGCCAUGGAAACUAGGAGCACCAUUUCGCUGCCAGUGAAGAAAUGAACGAAGAAAAUCUGGGCCAGGCAGGCAUCAAAAGAAGUAGUCUUGCGCUCAACCAGAAAGUCUGUAAUCAUUUUAAGGGUA	1.12
GUUAACGUUCAUAGGCCAUGGAAACUAGGAGCACCAUUUCGCUGCCAGUGAAGAAAUGAGCAGAGAAAAUCUGGGCCAGGCAGGCAUCAAAAGAAAUAGUCUUGCGCUCGACCAGAAAGUCUGUAAUCAUUUUAAGGGUA	0.13
GUUAACGGACAUAGGCCAUGGAAACUAGGAGCACCAUUUCGCUGCCAGUGAAGAAAUGAACAAAGGAAAUCUGGGCCAGGCAGGCAUCAAAAGAGAUAGUCUUGCGCCCAACCCGAAAGUCUGUAAUCAUUUUAAGGGUA	0.01
GUUAACGGACAUAGGCCAUGGAAACUAGGAGCACCAUUUCGCUGCCAGUGAAGAAAUGAGCAAAGAAAGUCUGGGCCAGGCAGGCAUCAAAAGAAAUAGUCUUGCGCUCAACCAGAAAGUCUGUAAUCAUUUUAAGGGUA	0.61
GUUAACGGACAUAGGCCAUGGAAACUAGGAGCUCCAUUUCGCCGCCAGUGAAGAAGUGAACAAAGAAAAUCUGGGCCAGGCAGGCAUCAAAAGAAGUAGUCUUGCGCUCAACCAGAAAGUCUGUAAUCAUUUUAAGGGUA	0.81
GUUAACGGACAUUGGCCAUGGGAACUAGGAGCACCAUUUCGCUGCCAGUGAAGAAACGAACAAAGAAAAUCUGGGCCAGGCAGGCAUCAAAAGAAAUAGUCUUGCGCUCAACCAGAAAGUCUGUAAUCAUUUUAAGGGUA	0.92
GUUAACGGACAUAGGCCAUGGAAACUAGGAGCACCAUUUCGCUGCCAGUGAAGAAAUGAACGAAGAAAAUCUGGGCCAGGCAGGCAUCAAGAGAAAUAGUCUUGCGCUCAACCAGAAAGUCUGUAAUCAUUUUAAGGGUA	1.18
GUUAACGGACAUAGGCCAUGGAAACUAGGAGCACCAUUUCGCUGCCAGUGAGGAAAUGAACAAAGAAAAUCUGGGCCAGGCAGGCAUCAAAAGAAAUAGUCUUGCGCUCAACCAGAAAGUCAGUAAUCAUUAUAAGGGUA	0.46
GUUAACGGACAUAGGCCAUGGAAACUAGGAGCACCAUUUCGCUGCCAGUGGAGAAAUGGACAGAGAAAAUCUGGGCCAGGCAGGCAUCAAAAGAAAUAGUCUUGCGCUCAACCAGAAAGUCUGUAAUCAUUUUAAGGGUA	1.73
GUUAACGGACGUAGGCCAUGGAAACUAGGAGCACCAUUUCGCUGCCAGUGAAGAAAUGAACAGAGAGAAUCUGGGCCAGGCAGGCAUCAAAAGAAAUAGUCUUGCACUCAACCAGAAAGUCUGUAAUCAUUUUAAGGGUA	0.08

Variant	self-cleavage
GUUAACGUUCAUAGGCCAUGGAACCUAGGAGCACCAUUUCGCUGCCAGUGAAGAAAUGAACGAAGAAAAUCUGGGCCAGGCAGGCAUCAAAAGAAAUAGUCUUGCGCCCAACCAGGAAGUCUGUAAUCAUUUUAAGGGUA	0.01
GUUAACGGACAUAGGCCAUGGAAACUAGGAGCACCAUUUCGCUGCCAGUGAGGAAAAGAACAAUGAAAAUCUGGGCCAGGCAGGCAUCAAAAGAAAUAGUCUUGCGCUCAACCAGAAAGUCUGUAAUCAUUUUAAGGGUG	1.09
GUUAACGGACAUAGGCCAUGGAAACUAGGAGCACCAUUUCGCUGCCAGUGAAGAAAUGAACAAAGAGAAUCUGGGCCAGGCAGGCAUCAAAAGAAAUAGUCUUGCGCUCGACCAGAAAGUCAGUAAUCAUUUUAAGGGUA	0.07
GUUAACGGACAUGGGCCAUGGAGACUAGGAGCACCAUUUCGCUGCCAGUGAAGAAAUGAACAAAGAAAAUCUGGGCCAGGCAGGCAUCAAAAGAAAUAGUCUUGCGCUCAACCAGAAAGUCUGUAAUCAUUUUAAGGGUA	0.42
GUUAACGGACAUAGGCCAUGGGAACUAGGAGCACCAUUUCGCUGCCAGUGAAGAAAUGAACAAAGGAAAUCUGGGCCAGGCAGGCAUCAAAAGAAAUAGUCUUGCGCUCAACCAGAAAGUCUGUAAUCAUUUUAAGGGUA	1
GUUAACGGACAUAGGCCAUGGAAACUAGGAGCACCGUUUCGCUGCCAGUGGAGAAAUGAACAAAGAAAAUCUGGGCCAGGCAGGCAUCAAAAGAAAUAGUCUUGCGCUCAACCAGAAAGUCUGUAAUCAUUUUAAGGGUA	0.82
GUUAACGGACAUAGGCCAUGGAAACUAGGGGCACCAUUUCGCUGCCAGUGAAGAAAUGAACAAAGAAAAUCUGGGCCAGGCAGGCAUCAAAAGAAAUAGUCUUGGGCUCAACCAGAAAGUCUGUAAUCAUUUUAAGGGUA	0.1
GUUAACGGACAUAGGCCGUGGAAACUAGGAGCACCAUUUCGCAGCCAGUGAAGAAAUGAACAAAGAAAAUCUGGGCCAGGCAGGCAUCAAAAGAAAUAGUCUUGCGCUCAACCAGAAAGUCUCUAAUCAUUUUAAGGGUA	0.56
GUUAACGGACAUAGGCCAUGGAAACUAGGAGCACCAUUUCGCUGCCAGUGAGGAAAUGAACAAAGAAAAUCUGGGCCAGGCAGGCAUCAAAAGAAAUAGUCUUGCGCUCAACCAGAGAGUCUGUAAUCAUUUUAAGGGUA	1.71
GUUAACGGACGUAGGCCAUGGAAACUAGGAGCACCAUUUCGCUGCCAGUGAAGAAAUGAACAAAGAAAAUCUGGGCCGGGCAGGCAUCAAAAGAAAUAGUCUUGCGCCCAGCCAGAAAGUCUGUAAUCAUUUUAAGGGUA	0.03
GUUAACGGACAUAGGCCAUGGAAACUAGGAGCACCAUUUCGCUGCCAGUGAUGAAAUGAACAAAGAAAAUCUGGGCCAGGCAGGCAUCAAUAGAAAUAGUCUUGCGCUCAACCAGAAAGUCUGUAAUCAUUUUAAGGGUA	0.39
GUUAACGGACAUAGGCCAUGGAAACUAGGAGCACCAUUUCGCUGCCAGUGAAGAGAUGAACAAAGGAAAUCUGGGCCAGGCAGGCAUCAAAAGAAAUAGUCUUGCGCUCAACCAGAAAGUCUGUAAUCAUUUUAAGGGUA	0.86
GUUAACGGACAUAGGCCAUGGAAACUAGGAGCACCAUUUCGCUGCCAGUGAGGAAAUGAACAAAGAAAAUCUGGGCCAGGCAGGCAUCAAAAGAAAUAGUCUUGCGCCCAACCAGAAAGUCUGUAAUCAUUUUAAGGGUA	0.02
GUUAACGGACAUAGGCCAUGGAAACUAGGAGCACCAUUUCGCUGCCAGUGAAGAAAUGAACGAAGAAAAUCUGGGCCAGGCAGGCAUCAAAAGGAAUAGUCUUGCGCUCAACCAGAAAGUCUGUAAUCAUUUUAAGGGUA	1.18
GUUAACGGACAUAGGCCAUGGAAACUAGGGGCACCAUUUCGCUGCCAGUGAAGUAAUGAACAAAGAAAAUCUGGGCCAGGCAGGCAUCAAAGGAAAUAGUCUUGCGCUCAACCAGAAAGUCUGUAAUCAUUUUAAGGGUA	1.27
GUUAACGGACAUAGGCCAUGGAAACUAGGAGCACCAUUUCGCUGCCAGUGAAGAAAUGAACAGAGAAAAUCUGGGCCAGGCAGGCAUCAAGAGAAAUAGUCCUGCGCUCAACCAGAAGGUCCGUAAUCAUUUUAAGGGUA	0.77
GUUAACGGACAUAGGCCAUGGGAACUAGGAGCACUAUUUCGCUGCCAGUGAAGAAAUGAACAAGGAAAAUCUGGGCCAGGCAGGCAUCAAAAGAAAUAGUCUUGCGCUCGACCAGAAAGUCUCUAAUCAUUUUAAGGGUA	0.04
GUUAACGGACAUAGGCCAUGGGAACUAGGAGCACCAUAUCGCCGCCAGUGAAGAAAUGAACAAAGAAAAUCUGGGCCAGGCAGGCAUCAAAAGAAACAGUCUUGCGCUCAGCCAGAAAGUCUGUAAUCAUUUUAAGGGUA	0
GUUAACGGACAUAGGCCAUGGAAACUAGGAGCUCCAUUUCGCUGCCAGUGAAGAAAUGAACAGAGGAGAUCUGGGCCAGGCAGGCAUCAAAAGAAAUAGUCUUGCGCUCAACCAGAAAGUCUGUAAUCAUUUUGAGGGUA	0.5
GUUAACGGACAUAGGCCAUGGAAACUAGGAGCACCAUUUCGCUGCCAGUGAAGAAAUGAGCAAAGAAAAUCUGGGCCAGGCAGGCAUCUAAAGAAAUAGUCUUGCGCUCAACCAGAAAGUCUGUAAUCAUUUUAAGGGUA	1.93
